# Screen size: about 150,000 compounds; about 540 (0.36%) showed an effect of 50% or more. The list shows a part of the results.
# System: Plasmodium falciparum
# Assay: Primary screen in NF54 nanoGlo assay, in single point, at 2uM, 72h; a lower Z score goes with more inhibition
# Assay type: functional, Erythrocyte
# Conditions: timepoint 72 hour
SMILES,% Inhibition,Z score
CC(C)NC(=O)c1n[nH]c2c1CCCCCC2,-15%,2.26
CC(=O)N1N=C(c2ccc(C)cc2)OC1(C)C,-2%,0.26
CCc1ccc(CN(Cc2cccnc2)Cc2ccc3c(c2)OCO3)nc1,-9%,1.34
O=C(NC[C@@H]1C[C@H](F)CN1)c1ccc(-c2cn(-c3ccccc3)cn2)cc1,-10%,1.51
CN(CCn1cnnc1)C(=O)c1cccc(Br)c1Cl,-2%,0.28
COc1ccc(NC(=O)Cn2c(N(C)Cc3ccccc3)nc(C)cc2=O)cc1Cl,-3%,0.5
CCCOC[C@H]1CCN(C(=O)c2cc(-c3ccc(OC)cc3)n[nH]2)C1,-12%,2.15
CCn1c(-c2cccnc2)nc2cc(NC(=O)COC)cc(C(=O)NCc3nc(C)cs3)c21,12%,-1.51
C=CCOc1ccc(-c2nc(=O)c(CCC(=O)NCc3cccnc3)n[nH]2)cc1OC,-13%,1.29
COc1ccsc1S(=O)(=O)NCc1cc(Cl)cn1C,10%,-1.42
COCCN1CCC(N2CCCN(C(=O)C3COc4ccccc4O3)CC2)C1=O (configuration not stated),-13%,2.29
Cc1nc2ccc(CNC(=O)N3CCC(c4nnc(CO)n4C)CC3)cc2[nH]1,1%,-0.23
O=C(NCCN1CC[C@H](N2CCOCC2)C1=O)c1ccccc1,29%,-3.52
Cc1cc(OCC(F)(F)C(F)F)nc(N)n1,5%,-0.54
COc1cc(Br)ccc1CN=C(N)N1CCOCC1,-11%,0.96
CCOc1c(OC)cccc1-c1nc2c([nH]1)CCCNC2=O,4%,-0.75
CCOc1ccc(CNC(=O)c2cccc(NC(=O)c3nsc4ccccc34)c2)cc1OC,4%,-0.68
CCn1cc(CN(C)C(=O)Nc2ccc3c(c2)CCC3)cn1,-4%,0.61
COc1ccccc1[C@@H]1C[C@H]1C(=O)N1CCCC(c2nc(C)no2)C1 (some centres not stated),4%,-0.57

SMILES,% Inhibition,Z score
CCC1=NO[C@@H](CNCC(=O)Nc2ccc(Cl)c(OC)c2)C1,7%,-0.91
CN1CCCN(C(=O)C2=Cc3ccccc3OC2)CC1,3%,-0.34
C[C@H](NCc1cnn(C(C)(C)C)c1)c1cn[nH]c1,2%,-0.32
Cc1nnc(-c2cccc3ccccc23)o1,-2%,0.28
O=C(Cc1ccccc1F)Nc1cc(S(=O)(=O)N2CCOCC2)ccc1Oc1ccc(F)cc1,-10%,1.83
CC(=O)NCC(=O)Nc1cc(C2CCCC2)nn1C,-1%,0.08
O=C(COc1ccccc1)N1CC[C@H](N(CCCN2CCOCC2)C(=O)C2CCC2)C1,-6%,0.92
CC(C)(C)OC(=O)N1CC2(CCCCCN2C(=O)c2cncnc2)C1,-5%,0.66
COc1cccc(C(=O)N2CCCN(c3cc(-c4ccc(Cl)cc4)n[nH]3)CC2)c1OC,9%,-0.9
Cc1ccc(CN2CCC3(CC2)CN(c2ncccn2)C[C@@H]3CO)cc1C,-6%,0.67
CN(Cc1ccc(-n2cccn2)cc1)C(=O)Cc1cccc(O)c1,-10%,0.89
Nc1ccc(-c2nnc(-c3ccccn3)[nH]2)cc1,2%,-0.33
C#CCN(CC1CC1)C(=O)c1ccc2c(=O)n3c(nc2c1)CCCCCC3,-9%,0.96
Cc1ncccc1C(=O)OC[C@H]1CCCCO1,-12%,1.71
Cc1[nH]ncc1C(=O)NC1CCCC(F)C1 (configuration not stated),2%,-0.28
Nc1ccc(C(=O)N2C[C@@H]3CCC[C@H](C2)C(=O)N3)cn1,-2%,0.24
Cc1ccc([C@H]2CC(=O)Nc3c(S(=O)(=O)c4ccc(Cl)cc4)csc32)cc1,-12%,1.25
Cn1cc(-c2ccc(CN3CCCC3)cn2)cn1,1%,-0.24
CCOc1ccccc1CNc1cc(C(F)F)ncn1,-10%,1.75

SMILES,% Inhibition,Z score
COCCN1CCC[C@H](C(=O)N2CCc3[nH]c(-c4ccccc4)nc3C2)C1,11%,-2.02
Cc1csc(CNC(=O)c2ccoc2C)n1,4%,-0.82
Nc1c2c(-c3cccc(F)c3)nc(NCCN3CCCC3)nc2nn1Cc1ccccc1,-14%,1.8
O=C(NCCc1nc2ccccc2[nH]1)C(F)(F)c1ccc(F)cc1,4%,-0.36
C=CCCc1ccccc1NC(=O)N1C[C@H](C)C(=O)[C@@H](C)C1,-6%,1.22
O=C(CCc1c[nH]c2ccccc12)N1CC(Cc2nncn2C2CCCC2)C1,0%,0.05
CCN1CCC[C@@H]1CNc1cc(C(C)C)nc(C)n1,9%,-1.3
COc1cccc(CN2CCN(c3nc4ccccc4o3)C[C@@H]2CCO)c1,2%,-0.29
O=c1ccccn1CCN1CCc2ccccc21,-14%,1.44
Cc1cc(Cl)cc2cc(C(=O)N3CC(N4CCNC4=O)C3)[nH]c12,19%,-2.7
Cc1ccc(C(=O)NC[C@H](C)c2ccc(Br)cc2)nn1,-2%,0.23
N#CC1(CS(=O)(=O)N2CCOc3cc(O)ccc3C2)CCCC1,-9%,1.31
CCc1ccc(C(=O)NC(CC)[C@H]2C[C@H](O)C2)[nH]1 (some centres not stated),2%,-0.29
O=C(NCC1CC12CC2)C1CCC(F)(F)C1 (configuration not stated),-5%,1.04
Cc1cccc2nc(CN(C)C(=O)CCc3cn[nH]c3)[nH]c12,-21%,1.83
COc1cccc(N2CCN(c3nn(-c4ccccc4)nc3C#N)CC2)c1,6%,-0.73
Cc1cc(S(=O)(=O)NCCCOC(C)C)cc(C(=O)O)c1C,-2%,0.22
Cc1ccc(NC(=O)CN(c2ccccc2)c2n[nH]c(=S)s2)c(C)c1,-46%,5.45
